From PubChem BioAssay AID588855 (National Center for Advancing Translational Sciences (NCATS), 2011)
“And” between values parts separate entries of the source, which are not always exact repeats. Equal values may be shown once. In all, about 410,000 compounds went through this assay and about 5,000 (1.2%) were called active. This list was built around the results that the source calls inconclusive (neither active nor inactive); the mix of calls is not that of the screen. The call rests on the fitted dose curve; in most records, active means well fitted inhibition curve with a large enough effect; inconclusive means small, poorly fitted or top-dose-only effect; inactive means no such curve, though single readings can be large or run the other way. Where the call is inconclusive, the potency comes from a doubtful curve fit.

Assay: qHTS for Inhibitors of TGF-b; further: nearly all actives have a fitted effect of over 65% in size
Details: HepG2 CAGA-GFP TGF-b/SMAD3 reporter, GFP fluorescence, 18 h, TGF-beta stimulated, 500 pg/mL final; series mostly up to 46.1 µM; activity, negative = inhibition: at the top concentration
How it was run: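 TGF-beta reporter screen: HEPG2 CAGA-GFP, 1% FBS, 500 pg/mL TGF-beta final, 18 h; per-cell GFP summed per well; curves fitted and categorized by class.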
On the % scale 0 is the no-effect control and ±100 the full control effect; potency means the concentration at half of the fitted maximal effect; tags describe the fitted curve by direction and shape.

Row | SMILES | Potency | activity, negative = inhibition
1 | Cc1ccc(NC(=O)C2CCCN2S(=O)(=O)c2ccc3nc(-c4ccccc4)[nH]c3c2)cc1F (stereo unspecified) | inconclusive: 22.4 µM [inhibitor, single point] | 
2 | COCCNC(=O)CSc1cn(CC(=O)N2CCCCCC2)c2ccccc12 | inconclusive: 1.12 µM [inhibitor, partial curve, poor fit] | 
3 | O=C(CCc1ccccc1)Nc1cc(Cl)ccc1O | inconclusive: 22.4 µM [inhibitor, single point] | 
4 | O=C1CC(c2ccc(F)cc2)C2=C(CCCC2=O)N1 (stereo unspecified) | inconclusive: 35.5 µM [inhibitor, single point] | 
5 | COc1ccccc1NC(=O)CCN1CCN(C)CC1 | inconclusive: 35.5 µM [inhibitor, single point] | 
6 | COC(=O)[C@H](CCSC)NC(=O)NCc1ccccc1F | inconclusive: 17.8 µM [inhibitor, single point] | 
7 | CCOc1ccc2c(c1)N(C(=O)CN1C(=O)CCC1=O)C(C)(C)C=C2C | inconclusive: 3.55 µM [inhibitor, single point] | 
8 | COc1ccc(Cl)cc1S(=O)(=O)N1CCN(C(=O)c2n[nH]c(=O)c3ccccc23)CC1 | inconclusive: 35.5 µM [inhibitor, single point] | 
9 | N#CCCN(C(=O)CCl)c1cccc(Cl)c1 | inconclusive: 35.5 µM [inhibitor, single point] | 
10 | O=C(Nc1ccc(Cl)cc1)c1ccc(-n2cncn2)c([N+](=O)[O-])c1 |  | inactive: -16.3%
11 | CCO[C@@H]1OC(C(=O)Nc2ccccc2)=C[C@H](c2ccc(Br)cc2)[C@H]1CCCO | inconclusive: 12.6 µM [inhibitor, single point] | 
12 | C=CCCN(C(CC(C)C)C(=O)OC)S(=O)(=O)c1ccccc1Br (stereo unspecified) | inconclusive: 35.5 µM [inhibitor, single point] and inconclusive: 28.2 µM [inhibitor, single point] | 
13 | COc1ccc(NC(=O)c2cc(S(=O)(=O)NCC3COc4ccccc4O3)ccc2F)cc1 (stereo unspecified) | inconclusive: 28.2 µM [inhibitor, single point] | 
14 | COc1ccccc1N1CCN(C(=O)c2ccc3c(=O)n(Cc4ccc5c(c4)OCO5)c(=O)[nH]c3c2)CC1 | inconclusive: 7.08 µM [inhibitor, partial curve, poor fit] | 
15 | CN(C(=O)c1ccc(S(=O)(=O)N(C)C)cc1)c1ccc2ccccc2c1 |  | inactive: -20.9%
16 | Cn1ccc2c(-c3ccc(C(C)(C)C)cc3)cc3c(c21)C1CCC3O1 (stereo unspecified) | active: 11.2 µM | 
17 | COc1ccc(S(=O)(=O)N2CCC(c3ccncc3)CC2)cc1OC | inconclusive: 6.31 µM [inhibitor, full curve, poor fit] | 
18 | O=C1CC(c2ccccc2F)c2cc3c(cc2N1)CCC3 (stereo unspecified) | inconclusive: 8.91 µM [inhibitor, partial curve, poor fit] | 
19 | CCc1ccc(NC(=O)Cn2c(=O)n(Cc3nc(-c4ccccc4)no3)c(=O)c3cc4c(cc32)OCO4)cc1 |  | inactive: 8%
20 | S=C(NCc1ccc2[nH]c3c(c2c1)CCCC3)Nc1ccccc1Cl | inconclusive: 35.5 µM [inhibitor, single point] | 
21 | Cc1ccc(-c2cc(C(=O)N/N=C/C=C/c3ccccc3)n[nH]2)s1 |  | inactive: -8.25%

Row | SMILES | Potency | activity, negative = inhibition
22 | CC(C)NC(=O)NC(=O)COC(=O)/C=C/c1ccccc1[N+](=O)[O-] | inconclusive: 6.31 µM [inhibitor, single point] | 
23 | COc1ccccc1N1CCN(C(=O)c2cc3c(s2)CCCCC3)CC1 | inconclusive: 35.5 µM [inhibitor, single point] | 
24 | Cc1ccccc1NC(=O)Nc1nc(C(N)Cc2ccccc2)cs1 (stereo unspecified) | inconclusive: 35.5 µM [inhibitor, single point] | 
25 | COc1ccc(Nc2oc(-c3ccc(OC)cc3)nc2C#N)cc1 | inconclusive: 0.282 µM [inhibitor, full curve, poor fit] | 
26 | COc1ccccc1-n1c(SCC(=O)NCC2CCCO2)nc2c([nH]c3ccccc32)c1=O (stereo unspecified) |  | inactive: -7.65%
27 | C=CCN(CC=C)S(=O)(=O)c1ccc(NC(=S)NC(=O)c2ccco2)cc1 |  | inactive: 9.29%
28 | CCCn1nnnc1SCC(=O)N1CCN(C(=O)c2ccco2)CC1 | inconclusive: 0.1 µM [inhibitor, full curve, poor fit] | 
29 | COc1ccc(Br)cc1/C=N/NC(=O)Cn1nnnc1N | inconclusive: 0.708 µM [inhibitor, partial curve, poor fit] | 
30 | Cc1ccccc1-n1nc(CSc2nc3ccccc3[nH]2)c(-c2ccccc2)c1N | inconclusive: 35.5 µM [inhibitor, single point] | 
31 | CCOC(=O)c1cc2sccc2n1CC(=O)OC | inconclusive: 35.5 µM [inhibitor, single point] | 
32 | Cc1ccccc1C(=O)NNC(=S)NC(=O)c1cccs1 | inconclusive: 35.5 µM [inhibitor, single point] | 
33 | Cc1ccc(S(=O)(=O)N2CCN(c3nc(-c4ccc(CN5CCNCC5)s4)nc4ccccc34)CC2)cc1 | inconclusive: 35.5 µM [inhibitor, single point] | 
34 | COC(=O)C1=C(C)NC(=O)/C1=C\c1cc(C)n(-c2c(C)cccc2C)c1C |  | inactive: -3.11%
35 | COCCNC(=O)CN(C(=O)CCC(=O)Nc1ccccn1)c1cc(C)ccc1C |  | inactive: 3%
36 | COc1ccc(C2C3=C(CC(C)(C)CC3=O)Oc3ncn(CC(C)C)c(=N)c32)cc1 (stereo unspecified) | inconclusive: 35.5 µM [inhibitor, single point] | 
37 | Cc1nn(C(=O)c2ccccc2)c(C)c1Sc1ccc(Cl)cc1 | inconclusive: 15.8 µM [inhibitor, partial curve, poor fit] | 
38 | Cc1ccc(NC(=O)Cn2c(C)cc(C)c(C#N)c2=O)cc1 | inconclusive: 35.5 µM [inhibitor, partial curve, poor fit] | 
39 | CCOc1ccc(NC(=O)Cn2c(=O)oc3cc(S(=O)(=O)NC4CCCC4)ccc32)cc1 |  | inactive: -16%
40 | O=C(CN1CCN(Cc2ccc(F)cc2Cl)S1(=O)=O)Nc1ccc(F)cc1 | inconclusive: 5.62 µM [inhibitor, full curve] | 
41 | Cc1cccc(-n2c(-c3ccco3)nc3c(cnn3-c3ccccc3C)c2=O)c1 | inconclusive: 35.5 µM [inhibitor, single point] | 
